The source gives no read counts; variants with many changes may rest on few reads.
B1: LINE1-full (parent)
chain: UACGUAGGUGGUUUUCCCCUGAUAGUGCUAAGGGGGCCUGGAAGUUUGGACUGGGCAGAGCUCAACACAGCGUGGCAAAGUGGCUGUGGCUAGACUGCCUCUCUGGAUUCCUCGUCACUCAGCAGGGCAUCUCUGAGAGAAAUGCC

Variants of: B1
Experiment: self-cleavage, relative activity (ratio to wild type); higher = more cleavage; in vitro, sequencing; the parent is a self-cleaving ribozyme

| Variant | self-cleavage |
| --- | --- |
| U20A G58A A79G A117U A121U | 0.06 |
| C19U C66U A94U G97A | 0.02 |
| C18U C90U U134C | 0.05 |
| C16U A94U G114A A140G | 0.06 |
| U20A G36U U46A | 1.06 |
| U20C A69U A94U A140U | 0.03 |
| C18U U23C U39C A57U | 0.2 |
| U20A U85A U96A C110G A136U A142G | 0.1 |
| U20C A24G C56A A117U | 0.2 |
| U20A U115C U130C A140G | 1.53 |
| U20C G34A U100C U109C U119C | 0.78 |
| U20C G35A A42G A124U A129G U134C | 2.68 |
| U20A U47A A57C A59G | 0.1 |
| C19U A64G U132C | 0.11 |
| U20C U26A A67G | 0.27 |
| C19U A42G A59G A107G | 0 |
| U20C A69U U73C G97A U109C A129G | 0.06 |
| U20C C90U A141G U143G | 0.01 |
| U20C G83U A129G A142G | 0.42 |
| U20C A65G A140G | 0 |
| C19A A65G G88A U102C | 0.05 |
| C19A U87C A121G A138G | 0.16 |
| C18U A78G C90G A136G | 0.07 |
| C19U A42G U85G G97C U130C A136G | 0 |

| Variant | self-cleavage |
| --- | --- |
| U20A A43G U109A | 1.17 |
| U20C U26C A50G A77C | 2.3 |
| U20C A31G A138G | 1.58 |
| U20A U47C G88A C95U A140G | 0.06 |
| U20A U45C A141G | 1.1 |
| C19U U29A U46A A50G A64G U112A A136G | 0.35 |
| U20C U46C C84U U102C | 0.22 |
| U20A A43G A69U U85G | 0.2 |
| C19U U73A A79G A138G | 0.71 |
| C19U A59G A69G | 0.21 |
| C19A A64U A77U U87C A138G | 0.05 |
| U20C A57C A129U | 0.17 |
| U20A U39C A77U U132C | 0.97 |
| U20C A31U U45C G88A | 0 |
| C16A U119C G135A | 0.81 |
| U20C U26C A78U | 2.4 |
| C16U G55A U87A A107G | 0.04 |
| U20A A69U A117G U119C A124G A138U | 0 |
| U20A A22C A121G | 0.98 |
| U20A A57G A141U U143A | 1.24 |
| C19U U62A A107G | 0.08 |
| U15G G53A A136G | 1.38 |
| U20A G58U U115A | 0.06 |
| C19U U45A A64U U132A | 0.66 |

| Variant | self-cleavage |
| --- | --- |
| C17A U45C A64G | 0.14 |
| C19U A67G U73A A124U | 0.4 |
| U20A A22G U109C A121U | 0.48 |
| C19U U73A A94G U108C A138G | 0.28 |
| U20C G33A U104C A129G A142G | 1.84 |
| U20C G35A A94U A138G | 0.22 |
| U20C G41A U47C G114A U115A | 1.63 |
| U20A A94G U115C A141G | 0.31 |
| U20C C111U U112C A142G | 1.62 |
| U20C G83A U109C A117U A140G A142U | 0.25 |
| U15G G72A U73C | 0.62 |
| U20C C116U U119C A141G | 2.05 |
| C19U G54A A77G A141G | 1.05 |
| C17U U108C U119C A138U | 2.14 |
| U20A U26A A92G U96C G105A A107U U115C | 0 |
| C19U U26C G33A A78G U115C C120U U134C | 2.09 |
| U20C A43U A136U A138G C145U | 1.63 |
| U20C A31G A64U U87C U119C | 0 |
| U20C A79G A138G | 1.24 |
| U20C G34A U39A | 1.93 |
| C19U A24G G83A A124U | 0.71 |
| U20C U26C U81C C120A | 0.51 |
| U20A A22G U130A | 1.53 |
| U20C G48A U115C G126U | 1.46 |

| Variant | self-cleavage |
| --- | --- |
| C19U U46A A50U U143C | 1.18 |
| C18U A42U A59G A94G | 0.21 |
| C17U U45C U47C | 1.02 |
| U20C A43U U119C | 1.39 |
| U20C A78G U87C G114A U132C A141G | 0 |
| C19U A107G U134A | 0 |
| U20C U45C A136G | 1.29 |
| C19U G34U U87A | 0.08 |
| U20C A42U A79G A142G | 1.12 |
| C19U G49A A79G U109C G114A A124U | 0.72 |
| C18A G36C U115G | 1.02 |
| C19G C84A U143A | 0.19 |
| U20C A59G U85G U91C U109A | 0 |
| C19A A138G U143A | 1.28 |
| C18U C61U A65G A129G | 0.04 |
| C16U G35A G36C A136G | 1.36 |
| U20C A31U U109A | 0.88 |
| U20A U39A A69U | 0.09 |
| U20C G25A U39A A50G A65G | 0 |
| U15G U26A A50U U62A U100C A129C A142G | 0 |
| U20A U52C U100C U143C | 2.38 |
| C17A G21A U52A U115C A129G | 1.38 |
| U20C A22U C113U | 0.63 |
| C19U U119C C133A | 0.77 |

| Variant | self-cleavage |
| --- | --- |
| C16U G25A U102A U104C | 1.23 |
| U20A A78G A136G | 1.43 |
| U20C G44C A92G | 0 |
| U20A G32A U47C A79G U87C | 0.26 |
| C16U G35A G74U G105A C120U | 1.5 |
| C16U A77G U87A A129U | 0.06 |
| C16U G97A G105A G114A | 0.14 |
| U20C A42U C63U U87C | 0.14 |
| C19U G32A U91A | 0.49 |
| U20A C116A U130C A140U | 0.46 |
| C19A A50G A94U U115C A136U | 0.41 |
| U15G U26G U100C | 0 |
| C18A A43G A67G U85A | 0.04 |
| U15G A77C C120U | 0.67 |
| U15G U87A U143A | 0.24 |
| C18U G72A A129U | 0.71 |
| C17A A67G U108C U132C | 0.88 |
| C17A A92G A129G | 0 |
| U20A A94G U119A | 0.2 |
| U20A A64G U96C A121G | 0 |
| U20A G36C C68A | 0.02 |
| U20C U45G A67U | 0.15 |
| U20A U46A A94G A141G | 0 |
| C17A U85C U96A A117G | 0.23 |

| Variant | self-cleavage |
| --- | --- |
| C19U U39G U132A A138U | 1.25 |
| U20C G35A U62A | 0.04 |
| C19U C28G U130C U143A | 1.29 |
| U20A U26C G53U A57G | 1.04 |
| U20C A78G U102C C128U A136G | 2.13 |
| U20C U29C A136G | 1.84 |
| U20C U23A U132A | 0.69 |
| C18U A107G U112C A141G | 2.3 |
| U20C G60A A64G U134C | 0.09 |
| C19U U62A A94G U115A | 0.14 |
| U20A A31G U46C A64G U87A U130A U143C | 0 |
| C16A U100C G144A | 0.43 |
| C19U A30U A42G | 1.01 |
| U20A A50G G54A A78C | 0.26 |
| U20A U39C A107G | 0.97 |
| U20C A31G U100C U130A U132C | 1.75 |
| C18A A42G U47A C66A U102C U109C A136G | 0.03 |
| C19G G32C A138G | 1.7 |
| U20C G60U U73A U85C U115C A142G | 0 |
| U20C U46A A124G G125U U130C | 2.45 |
| U20A U87C A129G U143A | 0.33 |
| U20A U23A A129G | 1.39 |
| U20A C71U A117G | 1.16 |
| C17A U81C U100C A129U | 1.84 |

| Variant | self-cleavage |
| --- | --- |
| U20A U85C U87A | 0.08 |
| C17U U26A C120U | 1.21 |
| U20C G74A A107G | 1.7 |
| U20A G49C C116U | 1.37 |
| U20C A67G U130A | 1.92 |
| C17A U52A A107G | 1.08 |
| C19U A42G A59U U109C A138G | 0.8 |
| U20A U26C U81C A136G | 2.83 |
| U20C G48A U81C | 1.38 |
| U20C G44A G74A U102C | 0.9 |
| U20C U39A U100A U132C | 0.44 |
| U20A A64U U96C U102C | 0 |
| C19U A65G U96C | 0.08 |
| C19U A107G U108A | 1.07 |
| U20C A78U A107G | 1.46 |
| U20A A24G A129C | 1.91 |
| C19U U96A A142C | 0.07 |
| U20C U29C A121C | 2 |
| U20C U26C U39C A124G A136G | 1.23 |
| U20A U52A A79G A107G U134A | 1.02 |
| C19U A43G A65U U104C | 0.49 |
| U20C A77G U81C U85A | 0 |
| U20C A57G A67G | 0 |
